153 variants from a collection of fitness landscapes (doi:10.1126/science.1257360) can be followed below.

Some of the results follow. Bounds are passed on as bounds.

The chains are these.
B1: PhoQ; a variant is named by its letters at X, in order, P23837 (parent)
chain: MKKLLRLFFPLSLRVRFLLATAAVVLVLSLAYGMVALIGYSVSFDKTTFRLLRGESNLFYTLAKWENNKLHVELPENIDKQSPTMTLIYDENGQLLWAQRDVPWLMKMIQPDWLKSNGFHEIEADVNDTSLLLSGDHSIQQQLQEVREDDDDAEMTHSVAVNVYPATSRMPKLTIVVVDTIPVELKSSYMVWSWFIYVLSANLLLVIPLLWVAAWWSLRPIEALAKEVRELEEHNRELLNPATTRELTSLVRNLNRLLKSERERYDKYRTTLTDLTHSLKTPLXXLQXXLRSLRSEKMSVSDAEPVMLEQISRISQQIGYYLHRASMRGGTLLSRELHPVAPLLDNLTSALNKVYQRKGVNISLDISPEISFVGEQNDFVEVMGNVLDNACKYCLEFVEISARQTDEHLYIVVEDDGPGIPLSKREVIFDRGQRVDTLRPGQGVGLAVAREITEQYEGKIVAGESMLGGARMEVIFGRQHSAPKDE

This experiment covers variants of B1. Kind of experiment: enrichment ratio after two sorts for PhoP signalling (ratio (wild type AVST 3.29)); higher = more functional. Conditions: with PhoP (E. coli).
Turning to WEIL, the enrichment ratio is not above 0.25.

As to AYPV, the enrichment ratio was not above 0.25.

In the case of TTMT, the enrichment ratio came out at 2.97.

On to NHCI, for which the enrichment ratio is not above 0.25.

As to VELS, the enrichment ratio was found to be 4.74.

Turning to DLCK, the enrichment ratio was not above 0.25.

On to KHET, for which the enrichment ratio is not above 0.25.

Take GPFA: the enrichment ratio was not above 0.25.

Turning to HFGW, the enrichment ratio was not above 0.25.

Regarding DAYE, the enrichment ratio is not above 0.25.

Turning to PNMK, the enrichment ratio was not above 0.25.

On to YRHD, for which the enrichment ratio was not above 0.25.

Turning to EMLW, the enrichment ratio is not above 0.25.

MWYQ: the enrichment ratio is not above 0.25.

Turning to YKTR, the enrichment ratio was not above 0.25.

HDTQ: the enrichment ratio was not above 0.25.

On to DLTK, for which the enrichment ratio is not above 0.25.

Regarding ASVG, the enrichment ratio is 14.7.

Take RSSS: the enrichment ratio was not above 0.25.

On to DAAV, for which the enrichment ratio was not above 0.25.

Consider FVKS, for which the enrichment ratio is not above 0.25.

Take FTAK: the enrichment ratio was not above 0.25.

Take YYCK: the enrichment ratio was not above 0.25.

Turning to FKCI, the enrichment ratio was not above 0.25.

Turning to NQNS, the enrichment ratio was not above 0.25.

Regarding DDHY, the enrichment ratio is not above 0.25.

For the variant LEQI, the enrichment ratio is not above 0.25.

For LNIR, the enrichment ratio was not above 0.25.

With VGHD, the enrichment ratio is not above 0.25.

Take MAKA: the enrichment ratio was not above 0.25.

Take SPQI: the enrichment ratio is not above 0.25.

As to IMNL, the enrichment ratio is not above 0.25.

Take IQFR: the enrichment ratio was not above 0.25.

EDFP: the enrichment ratio is not above 0.25.

Take DSCW: the enrichment ratio was not above 0.25.

With WMSM, the enrichment ratio is not above 0.25.

Take HDFG: the enrichment ratio was not above 0.25.

Turning to DAQE, the enrichment ratio was not above 0.25.

WNTT: the enrichment ratio was not above 0.25.

In the case of NFLF, the enrichment ratio is not above 0.25.

With WVGW, the enrichment ratio is not above 0.25.

With RCNM, the enrichment ratio was not above 0.25.

Turning to ESQA, the enrichment ratio was not above 0.25.

Consider RLDN, for which the enrichment ratio was not above 0.25.

Turning to VMMV, the enrichment ratio was not above 0.25.

For the variant VSFH, the enrichment ratio was not above 0.25.

Turning to KPPD, the enrichment ratio is not above 0.25.

With WKGI, the enrichment ratio is not above 0.25.

As to RVSN, the enrichment ratio is not above 0.25.

On to MDGV, for which the enrichment ratio was not above 0.25.

Turning to QQNE, the enrichment ratio was not above 0.25.

Consider GDFP, for which the enrichment ratio was not above 0.25.

As to DIAV, the enrichment ratio was not above 0.25.

As for QQIN, the enrichment ratio was not above 0.25.

For SPRW, the enrichment ratio was not above 0.25.

Turning to KCYV, the enrichment ratio was not above 0.25.

With VCIS, the enrichment ratio worked out at 0.315.

On to AHSQ, for which the enrichment ratio is not above 0.25.

Regarding ETKV, the enrichment ratio was not above 0.25.

Consider PTHS, for which the enrichment ratio was not above 0.25.

ASDM: the enrichment ratio was not above 0.25.

Take FKSA: the enrichment ratio is not above 0.25.

Turning to EEAI, the enrichment ratio was not above 0.25.

As for YFAF, the enrichment ratio is not above 0.25.

As to SVGD, the enrichment ratio is not above 0.25.

DKAV: the enrichment ratio is not above 0.25.

In the case of QHTY, the enrichment ratio was not above 0.25.

For NIEP, the enrichment ratio was not above 0.25.

On to PFVC, for which the enrichment ratio was not above 0.25.

On to YPYC, for which the enrichment ratio is not above 0.25.

On to VGLP, for which the enrichment ratio was not above 0.25.

Turning to MFCW, the enrichment ratio is not above 0.25.

Consider SMQD, for which the enrichment ratio is not above 0.25.

As to RHIM, the enrichment ratio was not above 0.25.

Take MPRA: the enrichment ratio is not above 0.25.

For the variant YNMS, the enrichment ratio is not above 0.25.

For the variant LYAA, the enrichment ratio is not above 0.25.

With TADY, the enrichment ratio was found to be 4.58.

For the variant TCCD, the enrichment ratio was not above 0.25.

Consider TFTA, for which the enrichment ratio is 2.47.

For FELH, the enrichment ratio was 1.49.

MPIT: the enrichment ratio was not above 0.25.

ERYQ: the enrichment ratio is not above 0.25.

NDCH: the enrichment ratio came out at 1.06.

As for ACRP, the enrichment ratio is not above 0.25.

With FKHY, the enrichment ratio was not above 0.25.

HFFW: the enrichment ratio is not above 0.25.

With KMMK, the enrichment ratio is not above 0.25.

On to PKWM, for which the enrichment ratio was not above 0.25.

For the variant LEVV, the enrichment ratio is not above 0.25.

For SQNT, the enrichment ratio is not above 0.25.

Regarding VNAK, the enrichment ratio is not above 0.25.

On to ARKK, for which the enrichment ratio was not above 0.25.

RVFM: the enrichment ratio was not above 0.25.

Consider GDME, for which the enrichment ratio was not above 0.25.

On to NKSS, for which the enrichment ratio is not above 0.25.

On to PIWL, for which the enrichment ratio is not above 0.25.

GSNL: the enrichment ratio was not above 0.25.

On to DWVV, for which the enrichment ratio is not above 0.25.

In the case of IIIE, the enrichment ratio was not above 0.25.

Turning to SWEA, the enrichment ratio was not above 0.25.

For the variant RGLL, the enrichment ratio is not above 0.25.

Regarding YSAD, the enrichment ratio was not above 0.25.

DFKD: the enrichment ratio was not above 0.25.

For the variant FSRF, the enrichment ratio is not above 0.25.

On to YNMR, for which the enrichment ratio is not above 0.25.

On to VAVS, for which the enrichment ratio is not above 0.25.

Consider EYKQ, for which the enrichment ratio was not above 0.25.

Take TDQP: the enrichment ratio is not above 0.25.

For PVVG, the enrichment ratio is not above 0.25.

On to PPNT, for which the enrichment ratio was not above 0.25.

Regarding DGQV, the enrichment ratio was not above 0.25.

Consider ATLD, for which the enrichment ratio came to 6.71.

As to VRNW, the enrichment ratio is not above 0.25.

Take RYIF: the enrichment ratio is not above 0.25.

Regarding QFTQ, the enrichment ratio is not above 0.25.

In the case of RYSP, the enrichment ratio was not above 0.25.

As for EEMN, the enrichment ratio is not above 0.25.

As to TVQP, the enrichment ratio was not above 0.25.

With FALW, the enrichment ratio was not above 0.25.

Take AQVI: the enrichment ratio stood at 18.1.

For the variant EICI, the enrichment ratio was not above 0.25.

In the case of HPFA, the enrichment ratio was not above 0.25.

For PEDH, the enrichment ratio is not above 0.25.

In the case of RWDF, the enrichment ratio was not above 0.25.

In the case of KISF, the enrichment ratio is not above 0.25.

Turning to YTYT, the enrichment ratio was not above 0.25.

SQST: the enrichment ratio is 6.97.

For the variant LSRG, the enrichment ratio is not above 0.25.

On to FDMG, for which the enrichment ratio is not above 0.25.

Consider FVIT, for which the enrichment ratio is not above 0.25.

Consider GKNC, for which the enrichment ratio was not above 0.25.

Turning to MFLL, the enrichment ratio is not above 0.25.

As for SWFV, the enrichment ratio was not above 0.25.

Consider MPGN, for which the enrichment ratio is not above 0.25.

Consider FRDF, for which the enrichment ratio is not above 0.25.

In the case of TEER, the enrichment ratio is not above 0.25.

Take YFSC: the enrichment ratio was not above 0.25.

For DGEN, the enrichment ratio is not above 0.25.

GWLS: the enrichment ratio was not above 0.25.

For DPIL, the enrichment ratio was not above 0.25.

On to QARS, for which the enrichment ratio is not above 0.25.

In the case of INPC, the enrichment ratio is not above 0.25.

On to DTLH, for which the enrichment ratio is not above 0.25.

As for IFNL, the enrichment ratio was not above 0.25.

As to NQFP, the enrichment ratio was not above 0.25.

As for FMYW, the enrichment ratio is not above 0.25.

Turning to NMHK, the enrichment ratio was not above 0.25.

Take PTFA: the enrichment ratio was not above 0.25.

With PCLE, the enrichment ratio was not above 0.25.

Take LIYK: the enrichment ratio is not above 0.25.

As to TMFT, the enrichment ratio was not above 0.25.

As to VPGE, the enrichment ratio was not above 0.25.
